Reference: PubChem BioAssay AID504332 (National Center for Advancing Translational Sciences (NCATS), 2011)
About 31,000 (8.9%) of roughly 350,000 compounds were called active. Inconclusive results, whose numbers are uncertain, are shown with a selection of clear calls. The call rests on the fitted dose curve; in most records, active means well fitted inhibition curve with a large enough effect; inconclusive means small, poorly fitted or top-dose-only effect; inactive means no such curve, though single readings can be large or run the other way. Potencies of inconclusive entries are doubtful fits and often do not repeat.

target: Histone-lysine N-methyltransferase EHMT2 (Homo sapiens) (UniProt Q96KQ7); experiment: qHTS Assay for Inhibitors of Histone Lysine Methyltransferase G9a; conditions: G9a H3K9 monomethylation, AlphaScreen, 2 h; activity, negative = inhibition: at 59 µM (top of the series) unless noted; further: nearly all actives have a fitted effect of over 75% in size
Chain of UniProt Q96KQ7 (Q96KQ7 whole entry, looked up): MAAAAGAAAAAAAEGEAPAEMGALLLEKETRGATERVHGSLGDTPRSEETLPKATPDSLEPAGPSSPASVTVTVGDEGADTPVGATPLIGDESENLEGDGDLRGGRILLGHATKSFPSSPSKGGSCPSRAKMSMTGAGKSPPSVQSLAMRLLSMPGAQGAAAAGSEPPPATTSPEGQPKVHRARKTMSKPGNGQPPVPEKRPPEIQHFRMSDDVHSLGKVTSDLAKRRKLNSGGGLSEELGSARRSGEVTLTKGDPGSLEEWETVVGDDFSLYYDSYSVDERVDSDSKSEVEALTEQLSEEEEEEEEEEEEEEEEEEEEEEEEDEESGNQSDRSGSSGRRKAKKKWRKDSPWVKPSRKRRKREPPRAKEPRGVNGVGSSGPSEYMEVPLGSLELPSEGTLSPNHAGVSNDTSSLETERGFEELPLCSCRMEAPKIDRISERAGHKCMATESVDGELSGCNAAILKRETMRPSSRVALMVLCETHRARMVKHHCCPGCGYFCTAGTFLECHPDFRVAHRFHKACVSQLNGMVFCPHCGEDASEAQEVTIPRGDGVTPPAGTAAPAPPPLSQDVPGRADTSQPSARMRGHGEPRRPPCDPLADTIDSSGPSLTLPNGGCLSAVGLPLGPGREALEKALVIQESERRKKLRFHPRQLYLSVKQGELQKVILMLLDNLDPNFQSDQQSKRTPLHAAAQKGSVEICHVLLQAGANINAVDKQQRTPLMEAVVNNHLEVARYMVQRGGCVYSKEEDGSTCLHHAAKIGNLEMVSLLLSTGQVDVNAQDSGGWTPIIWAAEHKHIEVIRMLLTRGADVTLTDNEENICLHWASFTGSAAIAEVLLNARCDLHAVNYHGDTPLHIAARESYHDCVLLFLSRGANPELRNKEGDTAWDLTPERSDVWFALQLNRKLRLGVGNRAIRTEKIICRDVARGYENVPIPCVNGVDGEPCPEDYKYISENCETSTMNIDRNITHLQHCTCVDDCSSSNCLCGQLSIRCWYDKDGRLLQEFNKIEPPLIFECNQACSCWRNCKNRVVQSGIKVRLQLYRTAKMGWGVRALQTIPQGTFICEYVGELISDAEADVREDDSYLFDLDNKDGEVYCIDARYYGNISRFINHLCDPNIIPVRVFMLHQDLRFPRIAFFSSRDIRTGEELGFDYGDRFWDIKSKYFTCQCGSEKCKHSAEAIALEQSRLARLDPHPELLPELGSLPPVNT
In short: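 Using a bead-based AlphaScreen, monomethylated H3K9 product from 2 h room-temperature reactions (G9a 20 nM, peptide 500 nM, SAM 20 uM) was detected with 0.5 ug/mL rabbit anti-H3K9me1 antibody.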
On the % scale 0 is the no-effect control and ±100 the full control effect; potency means the concentration at half of the fitted maximal effect; tags describe the fitted curve by direction and shape.

Row | SMILES | Potency | activity, negative = inhibition
1 | CCOc1ccc(-c2nnc(N(CC)C(=O)C3CCC3)s2)cc1 | inconclusive: 6.31 µM [inhibitor, single point] | –
2 | COc1ccccc1C(CCN(Cc1cccs1)C(C)=O)c1ccco1 (configuration not stated) | active: 44.7 µM | –
3 | CC1CCCC(C)N1CC(C)(C)NS(=O)(=O)c1ccc(Cl)cc1 (configuration not stated) | inconclusive: 12.6 µM [inhibitor, partial curve] | –
4 | Cc1nnc(N/N=C/C2CC=CCC2)[nH]c1=O (configuration not stated) | inconclusive: 0.891 µM [inhibitor, full curve, poor fit] | –
5 | Cc1cc(NC(=O)CN2CCN(c3ccccc3O)CC2)no1 | – | inconclusive: -86.8% [inhibitor]
6 | CCOC(=O)COc1ccc(S(=O)(=O)Nc2ccc3c(c2)OCO3)cc1 | inconclusive: 35.5 µM [inhibitor, partial curve, poor fit] | –
7 | CCCC1Cc2c(sc3ncnc(N)c23)CO1 (configuration not stated) | active: 44.7 µM | –
8 | CCOc1ccccc1NC(=O)Cn1c(-c2ccc(Cl)cc2)noc1=O | – | inconclusive: -72.3% [inhibitor]
9 | COc1cc(C(=O)N2CCCN(C)CC2)cc(OC)c1C | inconclusive: 89.1 µM [inhibitor, single point] | –
10 | O=C(c1cnc(N2CCN(c3ccccn3)CC2)c2ccccc12)N1CCN(c2cccc(Cl)c2)CC1 | inconclusive: 50.1 µM [inhibitor, partial curve, poor fit] | –
11 | Cc1cc(C(=O)CN2C(=O)NC3(CCCc4ccccc43)C2=O)c(C)n1C (configuration not stated) | inconclusive: 25.1 µM [inhibitor, single point] | –
12 | COc1ccc(CC(=O)N[C@@H](CCSC)c2nc3ccccc3[nH]2)cc1 | inconclusive: 35.5 µM [inhibitor, partial curve, poor fit] | –
13 | Cc1[nH]c(C(=O)O)c(C#N)c1C(=O)c1ccccc1 | inconclusive: 56.2 µM [inhibitor, partial curve, poor fit] | –
14 | COc1cccc(NC(=O)CN(C)C(=O)CN2C(=O)c3ccc([N+](=O)[O-])cc3C2=O)c1 | inconclusive: 50.1 µM [inhibitor, partial curve, poor fit] | –
15 | COc1ccc(/C=C/C(=O)N2CCN(c3ccccn3)CC2)cc1 | – | inactive: 0.306% [at 0.501 µM]
16 | Cc1nc(SCC(=O)Nc2c(C)n(C)n(-c3ccccc3)c2=O)[nH]c(=O)c1Cc1ccccc1 | inconclusive: 79.4 µM [inhibitor, single point] | –
17 | COc1ccc(N=C2SC(C(=O)Nc3ccc(OC)cc3)CC(=O)N2CCN2CCOCC2)cc1 (configuration not stated) | inconclusive: 89.1 µM [inhibitor, single point] | –
